Test results reported in PubChem BioAssay AID485367 (National Center for Advancing Translational Sciences (NCATS), 2010).
The whole screen tested about 330,000 compounds, of which about 560 (0.17%) were called active. Inconclusive means that the source gave no clear call. Such entries were picked first, then a sample of the others. The call rests on the fitted dose curve; in most records, active means well fitted inhibition curve with a large enough effect; inconclusive means small, poorly fitted or top-dose-only effect, or effect the other way; inactive means flat fitted curve, though single readings scatter. Potencies of inconclusive entries are left out as doubtful fits.

target: ATP-dependent 6-phosphofructokinase (Trypanosoma brucei brucei) (UniProt O15648); experiment: qHTS Assay to Find Inhibitors of T. brucei phosphofructokinase; further: nearly all actives have a fitted effect of over 60% in size; conditions: T. brucei PFK, ADP-Glo luminescence; series mostly up to 57.5 µM
Sequence of UniProt O15648 (O15648 whole entry, looked up): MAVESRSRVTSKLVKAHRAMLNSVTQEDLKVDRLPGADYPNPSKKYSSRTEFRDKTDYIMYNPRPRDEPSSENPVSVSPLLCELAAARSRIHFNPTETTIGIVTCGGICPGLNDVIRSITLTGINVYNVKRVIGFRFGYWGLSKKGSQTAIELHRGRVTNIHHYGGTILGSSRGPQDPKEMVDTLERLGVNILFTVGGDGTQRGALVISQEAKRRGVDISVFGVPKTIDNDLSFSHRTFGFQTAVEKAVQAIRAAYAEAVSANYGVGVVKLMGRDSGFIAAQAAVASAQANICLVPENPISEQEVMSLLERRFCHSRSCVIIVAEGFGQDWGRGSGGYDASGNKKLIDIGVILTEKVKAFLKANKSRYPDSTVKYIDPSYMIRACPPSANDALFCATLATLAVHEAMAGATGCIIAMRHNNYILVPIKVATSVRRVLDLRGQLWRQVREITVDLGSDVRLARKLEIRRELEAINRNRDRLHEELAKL
How it was run: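 ADP-Glo luminescence quantified ADP after 45 min at room temperature, with 1.25 nM T. brucei PFK, 0.1 mM ATP and 0.5 mM fructose-6-phosphate in pH 8.0 TEA buffer. qHTS titrations up to 57 µM; curves classified by quality.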
Potency means the concentration at half of the fitted maximal effect; tags describe the fitted curve by direction and shape.

Compound | Potency
N#Cc1ccc(CSc2nnc(NC(=O)c3ccc4ncsc4c3)s2)cc1 | inconclusive [activator, partial curve]
C/C=C\C=C\C(=O)N1CC2(CC(c3cccc(NC(=O)CC)c3)=NO2)C[C@H]1C(N)=O (stereo partly specified) | inconclusive [falling, partial curve]
O=C(COc1ncnc2c(Cl)cc(Cl)cc12)N1CCCCC1 | inconclusive [falling, single point]
O=S1(=O)CC(O)C(NCc2ccco2)C1 (stereo unspecified) | inactive
Cc1ccc(/C=C2/NC(=O)N(Cc3ccccc3)C2=O)o1 | inconclusive [falling, single point]
Nc1cc2c3c(cccc3c1)C(=O)N(CCN1CCCC1)C2=O | inactive
O=C(NNc1ccc(C(F)(F)F)cc1[N+](=O)[O-])c1ccc(NS(=O)(=O)c2ccc(F)cc2)cc1 | inconclusive [falling, single point]
CCN(CC)S(=O)(=O)c1ccc(-c2cn3cc(Cl)ccc3n2)cc1 | inactive
O=[N+]([O-])c1cc(Cl)c(O)c2ncccc12 | inactive
COc1ccc(-c2ccc(C#N)c(SCC(=O)NCc3ccco3)n2)cc1OC | inconclusive [falling, partial curve]
Cc1[nH]cnc1C(=O)N/N=C/c1c(Cl)cccc1Cl | inconclusive [falling, partial curve]
CN(Cc1ccon1)Cc1cn(C)nc1-c1cccc(Cl)c1 | inconclusive [activator, single point]
C(=N\NC1=Nc2cccc3cccc1c23)/c1cccnc1 | inactive
CCOC(=O)C1=C(CC)OC(N)=C(C#N)C1c1ccsc1 (stereo unspecified) | inconclusive [falling, single point]
Cc1ccc2c(c1)c1nnc(SCC(=O)Nc3ccc(N(C)C)cc3)nc1n2CC(=O)O | inconclusive [falling, single point]
COc1ccc(-c2nnc(NC(=O)C(C)C)s2)c(OC)c1 | inactive
Cc1cnc(C(=O)OCc2nc3ccsc3c(=O)[nH]2)cn1 | inactive
CCC1(C)NC(=O)N(CC(=O)N2CCN(c3cccc(Cl)c3)CC2)C1=O (stereo unspecified) | inconclusive [falling, partial curve]
CC(=O)N1CC[n+]2c(-c3ccc(Cl)cc3)csc21 | inactive
Oc1c(Cl)cc(CN2CCOCC2)c2cccnc12 | inconclusive [activator, single point]
Oc1c(Br)cc(Br)cc1CNc1cccc2cccnc12 | inconclusive [falling, partial curve, poor fit]
CCCNC(=O)c1ccccc1NS(=O)(=O)c1ccc(OC)c(OC)c1 | inconclusive [falling, full curve, poor fit]
NC(=O)Nc1ccc(F)cc1 | inconclusive [falling, partial curve]
C/C(CC1CC(COCC(C)C)OC1=O)=N\Nc1nc(-c2ccccc2)cs1 (stereo unspecified) | inactive
O=C(O)c1ccc(CNc2ccccc2C(=O)O)cc1 | inconclusive [falling, single point]
CSCCC(NC(=O)c1ccccc1)C(=O)OCC(=O)NCc1ccco1 (stereo unspecified) | inconclusive [falling, single point]

Compound | Potency
COc1cc2cc(C#N)c(SCC(=O)Nc3cc(C)on3)nc2cc1OC | inconclusive [activator, single point]
CSc1nc(N(C)CCO)c2sc3nc(-c4ccco4)c4c(c3c2n1)CCC4 | inconclusive [falling, partial curve]
O=C(CNC(=O)C1COc2ccccc2O1)Nc1ccc(F)c(F)c1 (stereo unspecified) | inconclusive [falling, single point]
Cc1cccc(NC(=O)NNC(=O)c2cc3ccccc3cc2O)c1C | inconclusive [activator, single point]
N#Cc1c(N)nc2c(c1N)CC(C(F)(F)F)O2 (stereo unspecified) | inconclusive [activator, single point]
CC[n+]1ccc(C[n+]2ccccc2)c2ccccc21 | inactive
O=C(COc1ccc2c(c1)CCC2)Nc1ccccn1 | inactive
O=C(O)/C=C/C(=O)NNC(=O)c1ccc(Cl)cc1Cl | inactive
CC(C)N(CCCNC(=O)CC1Oc2ccccc2NC1=O)Cc1ccccc1 (stereo unspecified) | inactive
O=C(Nc1cc(Cl)cc(Cl)c1)C1CC(=O)N(C2CCCC2)C1 (stereo unspecified) | inconclusive [falling, single point]
CN1CCN(c2ccc(-c3cccc(NC(=O)COc4ccc(Cl)cc4)c3)nn2)CC1 | inactive
Cn1ncc(Cl)c1C(=O)N1CCN(S(=O)(=O)c2ccc(F)cc2)CC1 | inactive
O=C(Nc1cnn(Cc2ccc(Cl)c(Cl)c2)c1)c1nc2ncccn2n1 | active: 5.36 µM
Cc1sc2c(c1C)C(=O)NC(c1cccc(O)c1)N2 (stereo unspecified) | inconclusive [falling, single point]
COc1ccc(OC)c(CCNC(=O)Cn2nc(C)c3c(C)n(-c4ccc(C)cc4)nc3c2=O)c1 | inactive
O=C(COC(=O)Cc1ccccc1F)Nc1ccc2[nH]c(=O)[nH]c2c1 | inconclusive [falling, single point]
COc1ccc(NS(=O)(=O)c2cccc(C(=O)NNC(=O)c3cccn3C)c2)cc1 | inconclusive [falling, single point]
COc1cc(/C=C(\C#N)C(=O)Nc2ccc(C(=O)O)cc2)ccc1OC(=O)c1cccc(F)c1 | inactive
COc1ccc(NC(=O)c2cc(-c3ccco3)nc3ccccc23)cn1 | inconclusive [falling, single point]
NCCc1ccc(O)c(O)c1 | inconclusive [falling, full curve]
C=CCn1c(SCC(=O)Nc2sccc2C(N)=O)nc2sc(C)c(C)c2c1=O | inconclusive [falling, single point]
COc1ccccc1CC(=O)Nc1cccc(F)c1 | inconclusive [falling, single point]
Cc1ccc(NC(=O)c2ccc(Cl)nc2)cc1S(=O)(=O)N1CCOCC1 | inconclusive [falling, single point]
Cc1c(Br)c([N+](=O)[O-])nn1CC(=O)Nc1nccs1 | inconclusive [falling, single point]
C[C@H](O)[C@H](O)[C@H]1CNc2nc(N)[nH]c(=O)c2N1 | inactive
CC(Oc1ccc2c3c(c(=O)oc2c1)CCCC3)C(=O)NCC1CCC(C(=O)O)CC1 (stereo unspecified) | inactive

Compound | Potency
CCN1CCN(C(=S)c2ccc(Cl)cc2)CC1 | active: 10.7 µM
Cc1ccc2c(Cl)cc(Cl)c(OCC(=O)N(C(C)C)C(C)C)c2n1 | inactive
CN(C)S(=O)(=O)c1cccc(-n2sc3ccccc3c2=O)c1 | active: 13.5 µM
O=C(Nc1nccs1)c1ccc(Cl)c([N+](=O)[O-])c1 | inconclusive [falling, single point]
COC(=O)c1ccccc1NC(=O)C/C(C)=N/NC(=O)Cc1ccc(Cl)cc1 | inconclusive [falling, partial curve]
Cc1ccc(CNC(=O)c2ccc(-n3cccc3)cc2)cc1 | inactive
COC(=O)COc1ccc(C2Nc3c(Cl)ccc(C(=O)O)c3C3C=CCC32)cc1 (stereo unspecified) | inconclusive [falling, single point]
OCC1(Cc2ccccc2F)CCCN(Cc2c(F)ccc(F)c2F)C1 (stereo unspecified) | inactive
CCOC(=O)c1c(-c2ccccc2)oc2ccc(O)cc12 | inconclusive [falling, single point]
COC(=O)C1=C(C)N(Cc2ccccc2)C(=NCc2cccc(C(F)(F)F)c2)N[C@H]1c1cccc(F)c1 | inactive
C=C(C)CCOC(=O)C(CC(=O)O)NCc1ccco1 (stereo unspecified) | inconclusive [falling, single point]
C/C(=N/NC(=O)CNC(=O)/C=C/c1ccco1)c1ccc(Cl)cc1 | inconclusive [falling, single point]
Cc1[nH]c2ccccc2c1C(c1ccccn1)N1CCC(C(N)=O)CC1 (stereo unspecified) | inconclusive [falling, single point]
COc1cccc(/C=N/NC(=O)c2ccc(OCc3cccc(Br)c3)cc2)c1 | inconclusive [falling, single point]
Cc1ccc(S(=O)(=O)NC2CCCCCC2)cc1C(N)=O | inconclusive [falling, single point]
COc1ccc(C(=O)n2cnc3ccccc32)cc1 | inactive
Cc1ccc(C2CC(c3ccc(NS(C)(=O)=O)cc3)=NN2C(=O)c2ccco2)cc1 (stereo unspecified) | inactive
Cc1c(Cl)ccc2c(C(=O)NCCN3CCCCC3)cc(-c3ccccn3)nc12 | inactive
COC(=O)c1ccc(-c2noc(CN(C)CCC3CCCCO3)n2)cc1 (stereo unspecified) | inconclusive [falling, partial curve]
CCOC(=O)c1c(NC(=O)CC2Nc3ccccc3NC2=O)sc(C)c1C (stereo unspecified) | inactive
CS(=O)(=O)NNC(=O)c1cc2cc3ccccc3nc2s1 | inconclusive [activator, partial curve]
Cc1cc(C=O)c(C)n1-c1ccc(Cl)c(C(=O)O)c1 | inconclusive [falling, single point]
O=C(O)c1ccc(-n2nnnc2SCc2ccccc2F)cc1 | inactive
CN(Cc1ccco1)Cc1ccc(O)c2ncccc12 | inconclusive [falling, single point]
